Patent publication US9804165 (MOR NUCO ENTERPRISES, dated 2017)

What was measured:
[1] = molecular target: T1, serotransferrin (79-85 kDa, isoelectric point pH 6.8 reference protein of serum) (human, UniProt P02787); test: 2-D gel western blot of cancer sera (Table 4)
T1 construct: also called serrotransferrin

Ref 3 = Ref 3 (human); test: 2-D gel western blot of cancer sera (Table 4)

T1 sequence (P02787 20-698 limits assumed): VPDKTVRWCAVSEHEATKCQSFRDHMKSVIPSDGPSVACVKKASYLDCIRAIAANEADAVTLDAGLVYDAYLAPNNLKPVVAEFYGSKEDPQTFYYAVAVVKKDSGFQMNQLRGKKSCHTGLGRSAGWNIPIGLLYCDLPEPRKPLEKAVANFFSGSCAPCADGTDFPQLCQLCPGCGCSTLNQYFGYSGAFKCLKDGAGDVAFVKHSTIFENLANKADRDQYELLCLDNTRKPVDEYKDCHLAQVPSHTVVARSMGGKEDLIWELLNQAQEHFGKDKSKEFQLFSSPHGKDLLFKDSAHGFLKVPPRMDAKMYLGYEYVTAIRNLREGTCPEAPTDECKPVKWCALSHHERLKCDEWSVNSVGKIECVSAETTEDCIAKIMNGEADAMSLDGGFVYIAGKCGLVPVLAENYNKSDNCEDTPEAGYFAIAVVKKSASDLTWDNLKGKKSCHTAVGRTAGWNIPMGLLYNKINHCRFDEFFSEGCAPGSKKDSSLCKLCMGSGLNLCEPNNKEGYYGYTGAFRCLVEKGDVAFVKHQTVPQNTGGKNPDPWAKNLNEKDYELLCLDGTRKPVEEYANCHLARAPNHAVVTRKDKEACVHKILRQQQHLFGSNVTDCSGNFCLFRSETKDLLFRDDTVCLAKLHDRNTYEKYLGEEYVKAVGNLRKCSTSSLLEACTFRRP

B1: scFv(S)(GST) with Gly.Ser.Cys linker [scFv(SC)] (scFv)
scFv: [about 200 residues omitted]SDLVPRGSPGIPEVKLQESGTEVVKPGASVKLSCKASGYIFTSYDIDWVRQTPEQGLEWIGWIFPGEGSTEYNEKFKGRATLSVDKSSSTAYMELTRLTSEDSAVYFCARGDYYRRYFDLWGQGTTVTVSSGGGGSCGGGSCGGGSENVLTQSPAIMSASPGERVTMTCSASSSIRYIYWYQQKPGSSPRLLIYDTSNVAPGVPFRFSGSGSGTSYSLTINRMEAEDAATYYCQEWSGYPYTFGGGTKLELKA
notes: also called functionalized scFv recombinant antibody; ScFV with -CXXC-XX-C linker; not shown: not p
fold signal, storage in 50% glycerol against absence of glycerol [1]: ~2 fold | fold signal, storage in 50% glycerol against absence of glycerol (Ref 3): ~2 fold
